Laboratory results: the supplement of paper PMC5655136
Values come from read counts of a selection and are noisy.

System: NB7
Assay: fold depletion of shRNA, plasmid library share / infected cells without Dox share (9 days) (ratio); higher = more depleted after infection (more toxic, leaky expression from a Tet-inducible vector; NB7 is a neuroblastoma line without caspase-8)
[1] = shRNA pool: CD95 ORF + CD95 3'UTR + Venus libraries
[2] = shRNA pool: CD95L ORF + CD95L 3'UTR + Venus libraries
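Note: shRNA barcodes quantified by deep sequencing of PCR amplicons from cellular DNA, counts expressed as percent of each subpool, ratio averaged over two biological duplicates.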

CCTGTCCTCCAGGTGAAAGGA
fold depletion of shRNA [1]: 2.45

CCTGTGTCTCCTTGTGATGTT
fold depletion of shRNA [2]: 1.07

CCTTACTACTATCCTACGTTT
fold depletion of shRNA [1]: 0.905

CCTTAGAAATTCTAGCCTGGT
fold depletion of shRNA [1]: 0.578

CCTTCAATTACCCATATCCCC
fold depletion of shRNA [2]: 0.923

CCTTGAGACCACAGGGTTCAA
fold depletion of shRNA [2]: 0.921

CCTTGCACCAAATGTGAACAT
fold depletion of shRNA [1]: 1.63

CCTTGCTACCTCAAGGGGGAC
fold depletion of shRNA [2]: 2.05

CCTTGGTAGGATTGGGCCTGG
fold depletion of shRNA [2]: 0.78

CCTTGGTGCTCATCTTAATGG
fold depletion of shRNA [1]: 4.33

CCTTGTGATCAATGAAACTGG
fold depletion of shRNA [2]: 1.21

CCTTGTGATGTTTTTCATGGT
fold depletion of shRNA [2]: 1.94

CCTTGTGTTTGGAATTATAAA
fold depletion of shRNA [1]: 0.69

CCTTTTAACTCACCTCTCAAG
fold depletion of shRNA [2]: 2.58

CCTTTTGCTGAAATATCAGTT
fold depletion of shRNA [1]: 0.998

CGAAAATGTTCAATAATGTCC
fold depletion of shRNA [1]: 1.11

CGAAAGAATGGTGTCAATGAA
fold depletion of shRNA [1]: 0.766

CGAAGGCTACGTCCAGGAGCG
fold depletion of shRNA [2]: 0.404 | fold depletion of shRNA [1]: 0.417

CGACAACCACTACCTGAGCTA
fold depletion of shRNA [2]: 1.93 | fold depletion of shRNA [1]: 1.22

CGACAAGCAGAAGAACGGCAT
fold depletion of shRNA [2]: 1.07 | fold depletion of shRNA [1]: 1.07

CGACACCCTGGTGAACCGCAT
fold depletion of shRNA [2]: 1.9 | fold depletion of shRNA [1]: 2.06

CGACCACATGAAGCAGCACGA
fold depletion of shRNA [2]: 1.16 | fold depletion of shRNA [1]: 1.24

CGACCACTACCAGCAGAACAC
fold depletion of shRNA [2]: 1.34 | fold depletion of shRNA [1]: 1.59

CGACGGCAACTACAAGACCCG
fold depletion of shRNA [2]: 0.734 | fold depletion of shRNA [1]: 1.16

CGACGGCCCCGTGCTGCTGCC
fold depletion of shRNA [2]: 0.325 | fold depletion of shRNA [1]: 0.391

CGACGTAAACGGCCACAAGTT
fold depletion of shRNA [2]: 2.27 | fold depletion of shRNA [1]: 3.35

CGACTTCAAGGAGGACGGCAA
fold depletion of shRNA [2]: 1.64 | fold depletion of shRNA [1]: 1.76

CGACTTCTTCAAGTCCGCCAT
fold depletion of shRNA [2]: 2.37 | fold depletion of shRNA [1]: 2.38

CGAGAAGCGCGATCACATGGT
fold depletion of shRNA [2]: 1.12 | fold depletion of shRNA [1]: 0.95

CGAGAATGTTGTATTCAGTGA
fold depletion of shRNA [2]: 2.62

CGAGAGTCTACCAGCCAGATG
fold depletion of shRNA [2]: 3.03

CGAGCTGAAGGGCATCGACTT
fold depletion of shRNA [2]: 3.54 | fold depletion of shRNA [1]: 1.78

CGAGCTGGACGGCGACGTAAA
fold depletion of shRNA [2]: 1.09 | fold depletion of shRNA [1]: 0.609

CGAGGACGGCGGCGTGCAGCT
fold depletion of shRNA [2]: 0.256 | fold depletion of shRNA [1]: 0.292

CGAGGAGCTGTTCACCGGGGT
fold depletion of shRNA [2]: 0.897 | fold depletion of shRNA [1]: 0.678

CGAGGGCGACACCCTGGTGAA
fold depletion of shRNA [2]: 0.734 | fold depletion of shRNA [1]: 0.534

CGAGGGCGAGGGCGATGCCAC
fold depletion of shRNA [2]: 0.701 | fold depletion of shRNA [1]: 0.874

CGAGGGCGATGCCACCTACGG
fold depletion of shRNA [2]: 0.94 | fold depletion of shRNA [1]: 1.49

CGAGGTGAAGTTCGAGGGCGA
fold depletion of shRNA [2]: 0.907 | fold depletion of shRNA [1]: 0.932

CGATCACATGGTCCTGCTGGA
fold depletion of shRNA [2]: 2.5 | fold depletion of shRNA [1]: 1.83

CGATGCCACCTACGGCAAGCT
fold depletion of shRNA [2]: 1.3 | fold depletion of shRNA [1]: 1.1

CGCACCATCTTCTTCAAGGAC
fold depletion of shRNA [2]: 3.27 | fold depletion of shRNA [1]: 1.85

CGCAGCAGCTACCTGGGGGCA
fold depletion of shRNA [2]: 0.191

CGCATCGAGCTGAAGGGCATC
fold depletion of shRNA [2]: 0.412 | fold depletion of shRNA [1]: 0.452

CGCCACAACATCGAGGACGGC
fold depletion of shRNA [2]: 0.756 | fold depletion of shRNA [1]: 1.38

CGCCACCACTGCCTCCACTAC
fold depletion of shRNA [2]: 10.6

CGCCACCGCCACCACTACCAC
fold depletion of shRNA [2]: 1.12

CGCCATGCCCGAAGGCTACGT
fold depletion of shRNA [1]: 1.59

CGCCCGCTACCCCGACCACAT
fold depletion of shRNA [2]: 0.773 | fold depletion of shRNA [1]: 1.44

CGCCCTGAGCAAAGACCCCAA
fold depletion of shRNA [2]: 1.86 | fold depletion of shRNA [1]: 1.13

CGCCGACAAGCAGAAGAACGG
fold depletion of shRNA [2]: 1.06 | fold depletion of shRNA [1]: 0.985

CGCCGACCACTACCAGCAGAA
fold depletion of shRNA [2]: 1.09 | fold depletion of shRNA [1]: 0.923

CGCCGAGGTGAAGTTCGAGGG
fold depletion of shRNA [2]: 0.876 | fold depletion of shRNA [1]: 1.17

CGCCGCCGGGATCACTCTCGG
fold depletion of shRNA [2]: 0.66 | fold depletion of shRNA [1]: 1.13

CGCCGGGATCACTCTCGGCAT
fold depletion of shRNA [2]: 1.3 | fold depletion of shRNA [1]: 1.96

CGCGATCACATGGTCCTGCTG
fold depletion of shRNA [1]: 0.892

CGCGCCGAGGTGAAGTTCGAG
fold depletion of shRNA [2]: 1.55 | fold depletion of shRNA [1]: 0.74

CGCTACCCCGACCACATGAAG
fold depletion of shRNA [1]: 1.07

CGCTGAAGAGCCAACATATTT
fold depletion of shRNA [1]: 2.48

CGCTGCCACCCCTGAAGAAGA
fold depletion of shRNA [2]: 0.286

CGGAAGAACATAGAACTCTGG
fold depletion of shRNA [2]: 0.676

CGGACCCAGAATACCAAGTGC
fold depletion of shRNA [1]: 1.01

CGGCAACATCCTGGGGCACAA
fold depletion of shRNA [2]: 1.22 | fold depletion of shRNA [1]: 0.824

CGGCAACTACAAGACCCGCGC
fold depletion of shRNA [2]: 1.07 | fold depletion of shRNA [1]: 0.797

CGGCAAGCTGACCCTGAAGCT
fold depletion of shRNA [2]: 0.98 | fold depletion of shRNA [1]: 0.869

CGGCAAGCTGCCCGTGCCCTG
fold depletion of shRNA [2]: 0.838 | fold depletion of shRNA [1]: 0.746

CGGCATCAAGGCCAACTTCAA
fold depletion of shRNA [2]: 1.07 | fold depletion of shRNA [1]: 1.39

CGGCATGGACGAGCTGTACAA
fold depletion of shRNA [2]: 3.89 | fold depletion of shRNA [1]: 2.14

CGGCCACAAGTTCAGCGTGTC
fold depletion of shRNA [2]: 0.9 | fold depletion of shRNA [1]: 0.756

CGGCCCCGTGCTGCTGCCCGA
fold depletion of shRNA [2]: 0.893 | fold depletion of shRNA [1]: 0.847

CGGCCTGCAGTGCTTCGCCCG
fold depletion of shRNA [2]: 0.727 | fold depletion of shRNA [1]: 0.792

CGGCGACGGCCCCGTGCTGCT
fold depletion of shRNA [2]: 1.48 | fold depletion of shRNA [1]: 0.424

CGGCGACGTAAACGGCCACAA
fold depletion of shRNA [2]: 0.587 | fold depletion of shRNA [1]: 0.947

CGGCGAGGGCGAGGGCGATGC
fold depletion of shRNA [2]: 3.29 | fold depletion of shRNA [1]: 3.9

CGGCGGCGTGCAGCTCGCCGA
fold depletion of shRNA [2]: 0.608 | fold depletion of shRNA [1]: 0.636

CGGCGTGCAGCTCGCCGACCA
fold depletion of shRNA [2]: 0.777 | fold depletion of shRNA [1]: 1.24

CGGGATCACTCTCGGCATGGA
fold depletion of shRNA [2]: 1.36 | fold depletion of shRNA [1]: 1.59

CGGGGTCAATCTTGCAACAAC
fold depletion of shRNA [2]: 2.5

CGGGGTGGTGCCCATCCTGGT
fold depletion of shRNA [2]: 0.383 | fold depletion of shRNA [1]: 0.624

CGGTGAAACTAACAGATAAGC
fold depletion of shRNA [2]: 0.274

CGTAAACGGCCACAAGTTCAG
fold depletion of shRNA [2]: 0.912 | fold depletion of shRNA [1]: 0.706

CGTAATTAAATAATGTTTTTG
fold depletion of shRNA [1]: 0.509

CGTAATTGGCATCAACTTCAT
fold depletion of shRNA [1]: 7.67

CGTATCTGAGCTCTCTCTGGT
fold depletion of shRNA [2]: 1.27

CGTATGACACATTGATTAAAG
fold depletion of shRNA [1]: 0.875

CGTCCAAAAGTGTTAATGCCC
fold depletion of shRNA [1]: 3.93

CGTCCAGGAGCGCACCATCTT
fold depletion of shRNA [2]: 1.19 | fold depletion of shRNA [1]: 1.08

CGTCTATATCACCGCCGACAA
fold depletion of shRNA [2]: 2.24 | fold depletion of shRNA [1]: 1.18
